# Data taken from the supplement of paper PMC8728848.
# Some of the results follow.
# B1: Codakine (Codakia orbicularis), Q3KVL7_9BIVA (protein)
# chain: MKILVAVFLVLVVVGTAAAGCPDGWTQFLDLCYIYQSAKASWASAQSSCQALGGILAEPDTACENEVLIHMCRENGDAGSFGPWLGGQKVGGAWQWSSSGAAFDYLRWGPNEPNNSGGNEDCLHYNWLSWNDLRCHYQASYLCQRAAE
# Key:
# Assay in all cases: glycan array binding signal (z-score within array); higher = stronger binding
# Conditions in all cases: glycan notation: IUPAC condensed, linker removed
# [1] = molecular target: Neu5Ac(a2-3)Gal(b1-4)[Fuc(a1-3)]GlcNAc
# Summary of the method: (§1)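 Glycan array binding is given as a within-array Z-score, which can be read as non-binding when negative. The arrays, 3228 of them, came from the Consortium for Functional Glycomics database and were retained only where the protein sequence was available. Z-scores were averaged across arrays of the same protein sequence at different concentrations or buffers and across linkers.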
# [2] = molecular target: Neu5Ac(a2-3)Gal(b1-4)[Fuc(a1-3)]GlcNAc(b1-3)Gal
# Summary of the method: as §1
# [3] = molecular target: Neu5Ac(a2-3)Gal(b1-4)[Fuc(a1-3)]GlcNAc(b1-3)Gal(b1-4)GlcNAc
# Summary of the method: as §1
# [4] = molecular target: Neu5Ac(a2-3)Gal(b1-4)[Fuc(a1-3)]GlcNAc(b1-3)Gal(b1-4)[Fuc(a1-3)]GlcNAc(b1-3)Gal(b1-4)[Fuc(a1-3)]GlcNAc
# Summary of the method: as §1
# [5] = molecular target: Neu5Ac(a2-3)Gal(b1-4)[Fuc(a1-3)]GlcNAc(b1-6)[Gal(b1-3)]GalNAc
# Summary of the method: as §1
# [6] = molecular target: Neu5Ac(a2-3)Gal(b1-4)[Fuc(a1-3)]GlcNAc6S
# Summary of the method: as §1
# [7] = molecular target: Neu5Ac(a2-3)Gal6S(b1-4)GlcNAc
# Summary of the method: as §1
# [8] = molecular target: Neu5Ac(a2-3)Gal6S(b1-4)[Fuc(a1-3)]GlcNAc
# Summary of the method: as §1
# Neu5Ac(a2-3)GalNAc = molecular target: Neu5Ac(a2-3)GalNAc
# Summary of the method: as §1
# [9] = molecular target: Neu5Ac(a2-3)GalNAc(b1-4)GlcNAc
# Summary of the method: as §1
# [10] = molecular target: Neu5Ac(a2-3)[GalNAc(b1-4)]Gal(b1-4)Glc
# Summary of the method: as §1
# [11] = molecular target: Neu5Ac(a2-3)[GalNAc(b1-4)]Gal(b1-4)GlcNAc
# Summary of the method: as §1
# [12] = molecular target: Neu5Ac(a2-3)[Neu5Ac(a2-6)]GalNAc
# Summary of the method: as §1
# Neu5Ac(a2-6)Gal = molecular target: Neu5Ac(a2-6)Gal
# Summary of the method: as §1
# Neu5Ac(a2-6)Gal(b1-4)Glc = molecular target: Neu5Ac(a2-6)Gal(b1-4)Glc
# Summary of the method: as §1
# [13] = molecular target: Neu5Ac(a2-6)Gal(b1-4)GlcNAc
# Summary of the method: as §1
# [14] = molecular target: Neu5Ac(a2-6)Gal(b1-4)GlcNAc(b1-2)Man(a1-3)[Gal(b1-4)GlcNAc(b1-2)Man(a1-6)]Man(b1-4)GlcNAc(b1-4)GlcNAc
# Summary of the method: as §1
# [15] = molecular target: Neu5Ac(a2-6)Gal(b1-4)GlcNAc(b1-2)Man(a1-3)[GlcNAc(b1-2)Man(a1-6)]Man(b1-4)GlcNAc(b1-4)GlcNAc
# Summary of the method: as §1
# [16] = molecular target: Neu5Ac(a2-6)Gal(b1-4)GlcNAc(b1-2)Man(a1-3)[GlcNAc(b1-2)Man(b1-4)GlcNAc(b1-2)Man(a1-6)]Man(b1-4)GlcNAc(b1-4)GlcNAc
# Summary of the method: as §1
# [17] = molecular target: Neu5Ac(a2-6)Gal(b1-4)GlcNAc(b1-2)Man(a1-3)[Neu5Ac(a2-6)Gal(b1-4)GlcNAc(b1-2)Man(a1-6)]Man(b1-4)GlcNAc(b1-4)GlcNAc
# Summary of the method: as §1
# [18] = molecular target: Neu5Ac(a2-6)Gal(b1-4)GlcNAc(b1-2)Man(a1-6)[Gal(b1-4)GlcNAc(b1-2)Man(a1-3)]Man(b1-4)GlcNAc(b1-4)GlcNAc
# Summary of the method: as §1
# [19] = molecular target: Neu5Ac(a2-6)Gal(b1-4)GlcNAc(b1-2)Man(a1-6)[GlcNAc(b1-2)Man(a1-3)]Man(b1-4)GlcNAc(b1-4)GlcNAc
# Summary of the method: as §1
# [20] = molecular target: Neu5Ac(a2-6)Gal(b1-4)GlcNAc(b1-3)Gal(b1-4)GlcNAc
# Summary of the method: as §1
# [21] = molecular target: Neu5Ac(a2-6)Gal(b1-4)GlcNAc(b1-3)Gal(b1-4)[Fuc(a1-3)]GlcNAc(b1-3)Gal(b1-4)[Fuc(a1-3)]GlcNAc
# Summary of the method: as §1
# [22] = molecular target: Neu5Ac(a2-6)Gal(b1-4)GlcNAc6S
# Summary of the method: as §1
# Neu5Ac(a2-6)GalNAc = molecular target: Neu5Ac(a2-6)GalNAc
# Summary of the method: as §1
# [23] = molecular target: Neu5Ac(a2-6)GalNAc(b1-4)GlcNAc
# Summary of the method: as §1
# Neu5Ac(a2-8)Neu5Ac = molecular target: Neu5Ac(a2-8)Neu5Ac
# Summary of the method: as §1
# [24] = molecular target: Neu5Ac(a2-8)Neu5Ac(a2-3)Gal(b1-4)Glc
# Summary of the method: as §1
# [25] = molecular target: Neu5Ac(a2-8)Neu5Ac(a2-3)[GalNAc(b1-4)]Gal(b1-4)Glc
# Summary of the method: as §1
# [26] = molecular target: Neu5Ac(a2-8)Neu5Ac(a2-8)Neu5Ac
# Summary of the method: as §1
# [27] = molecular target: Neu5Ac(a2-8)Neu5Ac(a2-8)Neu5Ac(a2-3)Gal(b1-4)Glc
# Summary of the method: as §1
# [28] = molecular target: Neu5Ac(a2-8)Neu5Ac(a2-8)Neu5Ac(a2-3)[GalNAc(b1-4)]Gal(b1-4)Glc
# Summary of the method: as §1
# [29] = molecular target: Neu5Ac(a2-8)Neu5Ac(a2-8)Neu5Ac(a2-8)Neu5Ac(a2-3)[GalNAc(b1-4)]Gal(b1-4)Glc
# Summary of the method: as §1
# [30] = molecular target: Neu5Ac(b2-6)Gal(b1-4)GlcNAc
# Summary of the method: as §1
# Neu5Ac(b2-6)GalNAc = molecular target: Neu5Ac(b2-6)GalNAc
# Summary of the method: as §1
# [31] = molecular target: Neu5Ac9Ac(a2-6)Gal(b1-4)GlcNAc
# Summary of the method: as §1
# [32] = molecular target: Neu5Gc(a2-3)Gal(b1-3)GlcNAc
# Summary of the method: as §1
# [33] = molecular target: Neu5Gc(a2-3)Gal(b1-3)[Fuc(a1-4)]GlcNAc
# Summary of the method: as §1
# Neu5Gc(a2-3)Gal(b1-4)Glc = molecular target: Neu5Gc(a2-3)Gal(b1-4)Glc
# Summary of the method: as §1
# [34] = molecular target: Neu5Gc(a2-3)Gal(b1-4)GlcNAc
# Summary of the method: as §1
# [35] = molecular target: Neu5Gc(a2-3)Gal(b1-4)[Fuc(a1-3)]GlcNAc
# Summary of the method: as §1
# [36] = molecular target: Neu5Gc(a2-6)Gal(b1-4)GlcNAc
# Summary of the method: as §1
# Neu5Gc(a2-6)GalNAc = molecular target: Neu5Gc(a2-6)GalNAc
# Summary of the method: as §1
# [37] = molecular target: Neu5Gc(b2-6)Gal(b1-4)GlcNAc
# Summary of the method: as §1
binder,measurement,setting,value
B1,glycan array binding signal (z-score),[1],-0.252
same,glycan array binding signal (z-score),[2],-0.33
same,glycan array binding signal (z-score),[3],-0.213
same,glycan array binding signal (z-score),[4],-0.359
same,glycan array binding signal (z-score),[5],-0.01
same,glycan array binding signal (z-score),[6],-0.196
same,glycan array binding signal (z-score),[7],-0.279
same,glycan array binding signal (z-score),[8],-0.201
same,glycan array binding signal (z-score),Neu5Ac(a2-3)GalNAc,-0.267
same,glycan array binding signal (z-score),[9],-0.254
same,glycan array binding signal (z-score),[10],-0.329
same,glycan array binding signal (z-score),[11],-0.264
same,glycan array binding signal (z-score),[12],-0.367
same,glycan array binding signal (z-score),Neu5Ac(a2-6)Gal,-0.246
same,glycan array binding signal (z-score),Neu5Ac(a2-6)Gal(b1-4)Glc,-0.198
same,glycan array binding signal (z-score),[13],-0.224
same,glycan array binding signal (z-score),[14],2.78
same,glycan array binding signal (z-score),[15],2.87
same,glycan array binding signal (z-score),[16],2.54
same,glycan array binding signal (z-score),[17],2.86
same,glycan array binding signal (z-score),[18],2.85
same,glycan array binding signal (z-score),[19],2.17
same,glycan array binding signal (z-score),[20],-0.164
same,glycan array binding signal (z-score),[21],-0.173
same,glycan array binding signal (z-score),[22],-0.121
same,glycan array binding signal (z-score),Neu5Ac(a2-6)GalNAc,-0.018
same,glycan array binding signal (z-score),[23],-0.245
same,glycan array binding signal (z-score),Neu5Ac(a2-8)Neu5Ac,-0.247
same,glycan array binding signal (z-score),[24],-0.241
same,glycan array binding signal (z-score),[25],-0.232
same,glycan array binding signal (z-score),[26],-0.227
same,glycan array binding signal (z-score),[27],-0.319
same,glycan array binding signal (z-score),[28],-0.205
same,glycan array binding signal (z-score),[29],0.202
same,glycan array binding signal (z-score),[30],-0.336
same,glycan array binding signal (z-score),Neu5Ac(b2-6)GalNAc,-0.238
same,glycan array binding signal (z-score),[31],-0.356
same,glycan array binding signal (z-score),[32],-0.272
same,glycan array binding signal (z-score),[33],-0.265
same,glycan array binding signal (z-score),Neu5Gc(a2-3)Gal(b1-4)Glc,-0.184
same,glycan array binding signal (z-score),[34],-0.291
same,glycan array binding signal (z-score),[35],-0.234
same,glycan array binding signal (z-score),[36],-0.289
same,glycan array binding signal (z-score),Neu5Gc(a2-6)GalNAc,-0.317
same,glycan array binding signal (z-score),[37],-0.176
